# From the supplement of paper PMC8728848
# The other results are listed elsewhere or left out.
# B1: Morniga (Morus nigra) (protein)
# chain: MAGTSTNTQTTGTSQTVEVGLWGGPGGNAWDDGSYTGIREINLSHGDAIGAFSVIYDLNGQPFTGPTHPGNEPSFKTVKITLDFPNEFLVSVSGYTGVLPRLATGKDVIRSLTFKTNKKTYGPYGKEEGTPFSLPIENGLIVGFKGRSGFVVDAIGVHLS
# Columns and labels:
# Assay in all cases: glycan array binding signal (z-score within array); higher = stronger binding
# Conditions in all cases: glycan notation: IUPAC condensed, linker removed
# Gal(a1-4)Gal(b1-4)GlcNAc = biological target: Gal(a1-4)Gal(b1-4)GlcNAc
# Outline: (§1)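 Arrays were curated from the Consortium for Functional Glycomics database, 3228 in total, and kept only where the protein sequence was available. Binding is expressed as a within-array Z-score. This score was averaged across arrays of the same protein sequence at different concentrations or buffers and across linkers, and negative values can be read as non-binding.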
# [1] = biological target: Gal(a1-4)Gal(b1-4)GlcNAc(b1-2)Man(a1-3)[Gal(a1-4)Gal(b1-4)GlcNAc(b1-2)Man(a1-6)]Man(b1-4)GlcNAc(b1-4)GlcNAc
# Outline: as §1
# [2] = biological target: Gal(a1-4)Gal(b1-4)GlcNAc(b1-3)Gal(b1-4)Glc
# Outline: as §1
# Gal(a1-4)GlcNAc = biological target: Gal(a1-4)GlcNAc
# Outline: as §1
# Gal(a1-6)Glc = biological target: Gal(a1-6)Glc
# Outline: as §1
# Gal(b1-2)Gal = biological target: Gal(b1-2)Gal
# Outline: as §1
# Gal(b1-3)Gal = biological target: Gal(b1-3)Gal
# Outline: as §1
# Gal(b1-3)Gal(b1-4)GlcNAc = biological target: Gal(b1-3)Gal(b1-4)GlcNAc
# Outline: as §1
# [3] = biological target: Gal(b1-3)Gal(b1-4)GlcNAc(b1-2)Man(a1-3)[Gal(b1-3)Gal(b1-4)GlcNAc(b1-2)Man(a1-6)]Man(b1-4)GlcNAc(b1-4)GlcNAc
# Outline: as §1
# Gal(b1-3)GalNAc = biological target: Gal(b1-3)GalNAc
# Outline: as §1
# [4] = biological target: Gal(b1-3)GalNAc(a1-3)[Fuc(a1-2)]Gal(b1-4)Glc
# Outline: as §1
# [5] = biological target: Gal(b1-3)GalNAc(a1-3)[Fuc(a1-2)]Gal(b1-4)GlcNAc
# Outline: as §1
# [6] = biological target: Gal(b1-3)GalNAc(b1-3)Gal(a1-4)Gal(b1-4)Glc
# Outline: as §1
# [7] = biological target: Gal(b1-3)GalNAc(b1-4)Gal(b1-4)Glc
# Outline: as §1
# [8] = biological target: Gal(b1-3)GalNAc(b1-4)[Neu5Ac(a2-3)]Gal(b1-4)Glc
# Outline: as §1
# Gal(b1-3)GlcNAc = biological target: Gal(b1-3)GlcNAc
# Outline: as §1
# [9] = biological target: Gal(b1-3)GlcNAc(a1-3)Gal(b1-4)GlcNAc
# Outline: as §1
# [10] = biological target: Gal(b1-3)GlcNAc(a1-6)Gal(b1-4)GlcNAc
# Outline: as §1
# [11] = biological target: Gal(b1-3)GlcNAc(b1-2)Man(a1-3)[Gal(b1-3)GlcNAc(b1-2)Man(a1-6)]Man(b1-4)GlcNAc(b1-4)GlcNAc
# Outline: as §1
# [12] = biological target: Gal(b1-3)GlcNAc(b1-2)Man(a1-3)[Gal(b1-3)GlcNAc(b1-2)Man(a1-6)]Man(b1-4)GlcNAc(b1-4)[Fuc(a1-6)]GlcNAc
# Outline: as §1
# [13] = biological target: Gal(b1-3)GlcNAc(b1-2)Man(a1-3)[GlcNAc(b1-4)][Gal(b1-3)GlcNAc(b1-2)Man(a1-6)]Man(b1-4)GlcNAc(b1-4)GlcNAc
# Outline: as §1
# [14] = biological target: Gal(b1-3)GlcNAc(b1-2)[Gal(b1-3)GlcNAc(b1-6)]Man(a1-6)[Gal(b1-3)GlcNAc(b1-2)Man(a1-3)]Man(b1-4)GlcNAc(b1-4)GlcNAc
# Outline: as §1
# [15] = biological target: Gal(b1-3)GlcNAc(b1-3)Gal(b1-3)GlcNAc
# Outline: as §1
# [16] = biological target: Gal(b1-3)GlcNAc(b1-3)Gal(b1-4)Glc
# Outline: as §1
# [17] = biological target: Gal(b1-3)GlcNAc(b1-3)Gal(b1-4)GlcNAc
# Outline: as §1
# [18] = biological target: Gal(b1-3)GlcNAc(b1-3)Gal(b1-4)GlcNAc(b1-6)[Gal(b1-3)GlcNAc(b1-3)]Gal(b1-4)Glc
# Outline: as §1
# [19] = biological target: Gal(b1-3)GlcNAc(b1-3)Gal(b1-4)[Fuc(a1-3)]GlcNAc(b1-6)[Gal(b1-3)GlcNAc(b1-3)]Gal(b1-4)Glc
# Outline: as §1
# [20] = biological target: Gal(b1-3)GlcNAc(b1-3)GalNAc
# Outline: as §1
# [21] = biological target: Gal(b1-3)GlcNAc(b1-6)Gal(b1-4)GlcNAc
# Outline: as §1
# [22] = biological target: Gal(b1-3)GlcNAc(b1-6)GalNAc
# Outline: as §1
# Gal(b1-3)GlcNAc6S = biological target: Gal(b1-3)GlcNAc6S
# Outline: as §1
# [23] = biological target: Gal(b1-3)[Fuc(a1-4)]GlcNAc
# Outline: as §1
# [24] = biological target: Gal(b1-3)[Fuc(a1-4)]GlcNAc(b1-2)Man(a1-3)[Gal(b1-3)[Fuc(a1-4)]GlcNAc(b1-2)Man(a1-6)]Man(b1-4)GlcNAc(b1-4)[Fuc(a1-6)]GlcNAc
# Outline: as §1
# [25] = biological target: Gal(b1-3)[Fuc(a1-4)]GlcNAc(b1-3)Gal(b1-3)[Fuc(a1-4)]GlcNAc
# Outline: as §1
# [26] = biological target: Gal(b1-3)[Fuc(a1-4)]GlcNAc(b1-3)Gal(b1-4)GlcNAc
# Outline: as §1
# [27] = biological target: Gal(b1-3)[Fuc(a1-4)]GlcNAc(b1-3)Gal(b1-4)[Fuc(a1-3)]GlcNAc
# Outline: as §1
# [28] = biological target: Gal(b1-3)[Fuc(a1-4)]GlcNAc(b1-6)GalNAc
# Outline: as §1
# [29] = biological target: Gal(b1-3)[GlcNAc(b1-6)]GalNAc
# Outline: as §1
# [30] = biological target: Gal(b1-3)[Neu5Ac(a2-6)]GalNAc
# Outline: as §1
# [31] = biological target: Gal(b1-3)[Neu5Ac(a2-6)]GlcNAc(b1-6)Gal(b1-4)Glc
# Outline: as §1
# [32] = biological target: Gal(b1-3)[Neu5Ac(b2-6)]GalNAc
# Outline: as §1
# Gal(b1-4)Gal = biological target: Gal(b1-4)Gal
# Outline: as §1
# [33] = biological target: Gal(b1-4)GalNAc(a1-3)[Fuc(a1-2)]Gal(b1-4)GlcNAc
# Outline: as §1
# [34] = biological target: Gal(b1-4)GalNAc(b1-3)[Fuc(a1-2)]Gal(b1-4)GlcNAc
# Outline: as §1
# Gal(b1-4)Glc = biological target: Gal(b1-4)Glc
# Outline: as §1
binder,measurement,setting,value
B1,glycan array binding signal (z-score),Gal(a1-4)Gal(b1-4)GlcNAc,-0.34
same,glycan array binding signal (z-score),[1],2.47
same,glycan array binding signal (z-score),[2],-0.341
same,glycan array binding signal (z-score),Gal(a1-4)GlcNAc,-0.324
same,glycan array binding signal (z-score),Gal(a1-6)Glc,-0.329
same,glycan array binding signal (z-score),Gal(b1-2)Gal,-0.336
same,glycan array binding signal (z-score),Gal(b1-3)Gal,-0.333
same,glycan array binding signal (z-score),Gal(b1-3)Gal(b1-4)GlcNAc,-0.335
same,glycan array binding signal (z-score),[3],4.04
same,glycan array binding signal (z-score),Gal(b1-3)GalNAc,-0.334
same,glycan array binding signal (z-score),[4],-0.338
same,glycan array binding signal (z-score),[5],-0.334
same,glycan array binding signal (z-score),[6],-0.345
same,glycan array binding signal (z-score),[7],-0.337
same,glycan array binding signal (z-score),[8],-0.338
same,glycan array binding signal (z-score),Gal(b1-3)GlcNAc,-0.336
same,glycan array binding signal (z-score),[9],-0.337
same,glycan array binding signal (z-score),[10],-0.339
same,glycan array binding signal (z-score),[11],3.06
same,glycan array binding signal (z-score),[12],1.26
same,glycan array binding signal (z-score),[13],1.26
same,glycan array binding signal (z-score),[14],1.79
same,glycan array binding signal (z-score),[15],-0.34
same,glycan array binding signal (z-score),[16],-0.336
same,glycan array binding signal (z-score),[17],-0.347
same,glycan array binding signal (z-score),[18],-0.336
same,glycan array binding signal (z-score),[19],-0.335
same,glycan array binding signal (z-score),[20],-0.318
same,glycan array binding signal (z-score),[21],-0.334
same,glycan array binding signal (z-score),[22],-0.334
same,glycan array binding signal (z-score),Gal(b1-3)GlcNAc6S,-0.302
same,glycan array binding signal (z-score),[23],-0.329
same,glycan array binding signal (z-score),[24],0.156
same,glycan array binding signal (z-score),[25],-0.331
same,glycan array binding signal (z-score),[26],-0.343
same,glycan array binding signal (z-score),[27],-0.328
same,glycan array binding signal (z-score),[28],-0.31
same,glycan array binding signal (z-score),[29],-0.339
same,glycan array binding signal (z-score),[30],-0.33
same,glycan array binding signal (z-score),[31],-0.33
same,glycan array binding signal (z-score),[32],-0.335
same,glycan array binding signal (z-score),Gal(b1-4)Gal,-0.318
same,glycan array binding signal (z-score),[33],-0.341
same,glycan array binding signal (z-score),[34],-0.338
same,glycan array binding signal (z-score),Gal(b1-4)Glc,-0.342
